PubChem BioAssay AID1347417 (National Center for Advancing Translational Sciences (NCATS), 2020)
The campaign covered roughly 120,000 compounds. About 5,300 (4.4%) were called active. The inconclusive results got no clear call from the source; some entries with a clear call stand among them for comparison. Calls come from the whole dose curve; as a rule, active = well fitted inhibition curve with a large enough effect; inconclusive = small, poorly fitted or top-dose-only effect; inactive = no such curve, though single readings can be large or run the other way. Potencies beside an inconclusive call are fits to weak or partial responses and may not hold up.

experiment: qHTS Primary assay for Inhibitors of Plasmodium falciparum Dd2 growth in vitro; note: nearly all actives have a fitted effect of over 65% in size;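 for activity, negative = inhibition: plate controls were DMSO vehicle for no effect and reference drug for full effect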; conditions: P. falciparum Dd2 growth, SYBR Green, 72 h; activity, negative = inhibition: at 28.9 µM (top of the series) unless noted; series mostly up to 28.9 µM
Outline: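 Infected erythrocytes (Dd2, 0.3% parasitemia, 2.5% hematocrit final) are added to compound in RPMI-1640/Albumax II medium, grown 72 h at 37C in low oxygen, then lysed with saponin/Triton-X containing SYBR Green and read by fluorescence.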
Potency is the fitted concentration of half-maximal effect; tags give direction and shape of the fitted curve.

Structure (SMILES) | Potency | activity, negative = inhibition
O=C1CC2(CCN(CC3CC3)CC2)Oc2ccccc2N1c1ccccc1 | inactive | –
O=C(O)CCC(=O)N1CC[C@H]2NC(=O)N(c3ccc(Oc4ccccc4)cc3)C(=O)[C@H]21 | inactive | –
Clc1ccccc1C1(c2ccnc(NCc3ccccn3)n2)CCNCC1 | inconclusive: 10 µM [inhibitor, single point] | –
COc1ccc(CNC[C@H]2C[C@@H]3CCN2C[C@@H]3c2cc(-c3cccs3)nn2C)cc1 | inconclusive: 31.6 µM [inhibitor, single point] | –
O=C(NCc1ccccc1)c1ccc2c(c1)OCCN(C1CCC1)C2 | inconclusive: 3.98 µM [inhibitor, partial curve, poor fit] | –
COC(=O)c1scc(-c2ccc(C)cc2)c1S(=O)(=O)Nc1cc(Cl)c(OC)cc1OC | active: 8.91 µM | –
CC(=O)N1CC2(CCN(CC3CC3)C2)Cc2ccccc21 (stereo not given) | inactive | –
CCOC(=O)c1[nH]cnc1C(=O)Nc1cccc(OC)c1 | inconclusive: 10 µM [inhibitor, partial curve, poor fit] | –
Cc1cccc(CNC(=O)c2ccc3c(c2)N(C)C2CCCN2C3=O)c1 (stereo not given) | active: 10 µM | –
CCn1ncc(N2CCC(NC(=O)c3ccc(C)cc3C)CC2)cc1=O | inactive | –
CCCN(C)c1nccnc1OC1CCN(C(=O)C(CC)CC)C1 (stereo not given) | inconclusive: 10 µM [inhibitor, single point] | –
c1ccc2c(CC3CN4CCCC4CN3)c[nH]c2c1 (stereo not given) | inconclusive: 11.2 µM [inhibitor, partial curve, poor fit] | –
CC1=C(C(=O)OC2CCCC2)C(c2c(Cl)cccc2Cl)CC(=O)N1 (stereo not given) | inactive | –
O=C(C1CCCCC1)N1CC2CC(C1)[C@H]1CCCC(=O)N1C2 (stereo not given in full) | inactive | –
Cc1cc(C(=O)N2CCN(c3ccccc3)CC2)c2c(C)nn(-c3cccc(F)c3)c2n1 | inactive | –
O=C(Cn1c(=O)n(CCc2ccccc2)c(=O)c2cccnc21)Nc1ccc(F)cc1 | inconclusive: 11.2 µM [inhibitor, single point] | –
Cc1ccc(C(=O)NC(C(=O)N2CCCCC2)C2CCN(S(=O)(=O)C(C)C)CC2)cc1 (stereo not given) | inconclusive: 1.58 µM [inhibitor, partial curve, poor fit] | –
Cc1cc(C)c(NC(=O)c2nc3ccccc3nc2N2CCCCC2)c(C)c1 | inconclusive: 17.8 µM [inhibitor, single point] | –
CCc1nc2c(c(-c3ccc(O)cc3)n1)CN(Cc1ccc(OC(F)(F)F)cc1)CC2 | inconclusive: 1.58 µM [inhibitor, partial curve, poor fit] | –
CCC(C)NC(=O)c1c(C)oc2ncn(CC(C)C)c(=O)c12 (stereo not given) | inconclusive: 17.8 µM [inhibitor, single point] | –
O=C(CCS(=O)(=O)c1cc(Br)cc2c1N(C(=O)C1CC1)CC2)N1CCN(c2cccc(Cl)c2)CC1 | inconclusive: 1.12 µM [inhibitor, full curve, poor fit] | –
Cc1oc2c(c1C(=O)N(C)C)CN(S(=O)(=O)c1ccccc1)CC2 | inconclusive: 5.01 µM [inhibitor, partial curve] | –
O=C1CCN(S(=O)(=O)c2cccs2)CCCC(CO)CCN1 (stereo not given) | inconclusive: 17.8 µM [inhibitor, single point] | –
CC(=O)NCCC(=O)N1Cc2ccccc2CC2(CCCN2CC2CCNCC2)C1 (stereo not given) | inactive | –

Structure (SMILES) | Potency | activity, negative = inhibition
O=C(C1CCCC1)N1Cc2ccccc2CC2(CCN(Cc3ccncc3)CC2)C1 | inconclusive: 12.6 µM [inhibitor, single point] | –
CN(C)CCNC(=O)C[C@H]1NC(=O)c2ccccc2NC1=O | inactive | –
CC(C)c1cc(C(=O)N2CCCC(c3ccccc3)(c3ccccc3)C2)n(C)n1 | active: 3.16 µM | –
O=C(Cn1ccn2nc(-c3ccc(F)cc3)c(CO)c2c1=O)NCc1ccc(F)cc1Cl | inactive | –
CCn1nc(C)c(CNC(=O)C(c2ccc(F)cc2)N(C)C)c1C (stereo not given) | inactive | –
CCOC(=O)c1[nH]c2c(c1Cc1ccccc1OC)C(=O)CC(c1ccc(OC)cc1)C2 (stereo not given) | inconclusive: 11.2 µM [inhibitor, single point] | –
COc1cccc(S(=O)(=O)N2CC(n3cc(C(=O)NCc4ccccc4)nn3)C2)c1 | inactive | –
O=C1NCCCCCCN(Cc2ccncc2)[C@@H]2CN(C(=O)CCc3c[nH]c4ccccc34)CC[C@@H]12 | inconclusive: 11.2 µM [inhibitor, single point] | –
COc1cccc(C(=O)N2CCC(c3n[nH]c(=O)n3-c3ccc(C)cc3)CC2)c1 | inactive | –
COc1cccc(CC(=O)N2CC(c3nnc(-c4ccncc4)o3)C3(CCOCC3)C2)c1 (stereo not given) | inactive | –
CC(C)NC(=O)C[C@@H]1C[C@H]2O[C@H](CN(C)C)[C@@H](O)[C@H]2O1 | inactive | –
O=C(NCc1nnc2cc(-c3nc(C4CC4)no3)ccn12)c1ccccc1 | inconclusive: 3.98 µM [inhibitor, partial curve, poor fit] | –
Cc1c(C)n(Cc2ccc(F)cc2)c2ccc(C(=O)N3CCN(c4ccc(F)cc4)CC3)cc12 | inactive | –
COC(=O)C1=C(C)N=C2SC=C(CC(=O)NCCCN3CCCC3=O)N2C1c1ccccc1 (stereo not given) | inactive | –
CCC1=C(C(=O)OC)C(c2ccc(OC)cc2OC)N2C(CC(=O)N3CCOCC3)=CSC2=N1 (stereo not given) | inconclusive: 4.47 µM [inhibitor, partial curve, poor fit] | –
COc1ccc(C(=O)N2CC3(Cc4ccccc4N([S+](C)(=O)[O-])C3)C2)cc1 | inconclusive: 17.8 µM [inhibitor, single point] | –
CN1CCCN(C(=O)CC2CCCC2)c2ccccc21 | inconclusive: 20 µM [inhibitor, single point] | –
COc1cccc(NC(=O)CSc2nc3c([nH]c4ccccc43)c(=O)n2-c2cc(C)cc(C)c2)c1 | active: 8.91 µM | –
Cc1ccccc1Cn1nc2n(c1=O)CCCCC2 | inactive | –
CC1CCc2c(cc(-c3ccccc3)n2-c2ccc(C(=O)NC(C)C)cc2)C1 (stereo not given) | inactive | –
Cc1cc(=O)n(CC(=O)Nc2cccc(Cl)c2C)c(N2CCN(c3ccccc3)CC2)n1 | inconclusive: 10 µM [inhibitor, single point] | –
Cc1noc(C)c1CC(=O)N1CCCC(c2nn(C)c(=O)n2C(C)C)C1 (stereo not given) | inactive | –
CCCN1C(=O)CC[C@H]2CN(C(=O)c3ccc4sccc4c3)CC[C@H]21 | inactive | –
O=S(=O)(C1CC1)N1CCn2c(nnc2-c2cncc(Br)c2)C1 | inactive | –

Structure (SMILES) | Potency | activity, negative = inhibition
COC(=O)[C@@H]1Cc2c([nH]c3ccccc23)[C@@H]2C[C@@H](NCCCn3ccnc3)C[C@@H](c3ccc(F)c(F)c3)N12 | inconclusive: 2.24 µM [inhibitor, partial curve, poor fit] | –
CNC(=O)c1cc(Br)cn2ccnc12 | inactive | –
CC1=C[C@@H](CNC(=O)c2ccc(C#N)cc2)[C@H](C(C)C)C[C@H]1CC(=O)NCCN(C)C | inconclusive: 10 µM [inhibitor, partial curve, poor fit] | –
CC(=O)N1CCCc2cc(S(=O)(=O)N3CCCC(C(=O)NCc4ccccc4Cl)C3)ccc21 (stereo not given) | inconclusive: 11.2 µM [inhibitor, single point] | –
Cc1cccc(C)c1OC1CN(c2cc(C3CC(O)C3)nc(N)n2)C1 (stereo not given) | inconclusive: 10 µM [inhibitor, single point] | –
CC(=O)Nc1ccc(CC(=O)N2CCC3(CCC(=O)N(Cc4ccccc4)CC3)CC2)cc1 | inconclusive: 20 µM [inhibitor, single point] | –
COc1ccc(C(=O)N[C@@H]2CCC[C@@H]2C(=O)NCc2cccc(C)c2)cn1 | inactive | –
CCCNS(=O)(=O)c1cc(-c2nn3c(C)nnc3c3ccccc23)ccc1C | inactive | –
O=C(C1CCN(S(=O)(=O)N2CCOCC2)CC1)N1CCc2nc3cc[nH]n3c(=O)c2C1 | – | inactive: 28.2% [at 5.79 µM]
CC1=C[C@@H](CNC(C)C)[C@H](C(C)C)C[C@H]1Cc1nnc(-c2ccc(N(C)C)cc2)o1 | active: 3.55 µM | –
COc1ccc(-c2cnc([C@@H]3COCCN3Cc3ccncc3)[nH]2)cc1 | inactive | –
Cc1cnc(C2CC2)n1CCNC(=O)C(C)C | inactive | –
O=C1CC(c2ccccc2)N(C(=O)CNC(=O)c2cc3ccccc3[nH]2)CCCCCCN1 (stereo not given) | inconclusive: 7.94 µM [inhibitor, partial curve, poor fit] | –
Cc1ccc2c(c1)C(c1ccc(F)cc1)N(C(=O)c1ccc(S(=O)(=O)N3CCCCC3)cc1)CC(=O)N2 (stereo not given) | inconclusive: 10 µM [inhibitor, partial curve, poor fit] | –
Cc1cn2nc(C(=O)Nc3ccc4c(c3)OCCO4)cc2c(N2CCCC2)n1 | inconclusive: 0.891 µM [inhibitor, full curve, poor fit] | –
COc1ccc(C(=O)Nc2ccc3nc(SCC(=O)N4CCc5ccccc54)sc3c2)cc1 | inconclusive: 11.2 µM [inhibitor, single point] | –
CCOCCCNC(=O)c1ccc(-n2c(-c3ccccc3)cc3c2CCC(C)C3)cc1 (stereo not given) | inconclusive: 12.6 µM [inhibitor, partial curve, poor fit] | –
Cc1cc(-c2ccccc2)nc(CN2CC[C@@](O)(C3CCC3)[C@H](C)C2)n1 | active: 10 µM | –
Cc1ccc(C2(O)CCN(c3cc(C(F)(F)F)ccn3)CC2)nc1 | inactive | –
CC(=O)Nc1ccc(CN2CCC3(C2)C(=O)N(c2ccccc2)c2ccccc23)cc1 (stereo not given) | inconclusive: 7.94 µM [inhibitor, partial curve] | –
COCC(c1ccccn1)N(C)Cc1cn(-c2ccccc2)nn1 (stereo not given) | inactive | –
COc1ccc(CCNC(=O)c2nc(-c3ccc(Cl)cc3)n3c2CCCCC3)c(OC)c1 | inconclusive: 10 µM [inhibitor, single point] | –
